Laboratory results: publication PMC4336329 (PLoS ONE, 2015)
Hit rate of the full screen: of about 310,000 compounds, about 14,000 (4.5%) showed an effect of 50% or more. The effect is printed as a negative number. This is one part of the list.

target: human ether-à-go-go-related gene (hERG) potassium channel (human, UniProt Q12809); test: primary screen, population patch clamp on CHO cells stably expressing hERG
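Note: peak tail current of the secondary pulse compared with the same well before compound.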

human ether-à-go-go-related gene (hERG) potassium channel, sequence (Q12809 whole entry, looked up): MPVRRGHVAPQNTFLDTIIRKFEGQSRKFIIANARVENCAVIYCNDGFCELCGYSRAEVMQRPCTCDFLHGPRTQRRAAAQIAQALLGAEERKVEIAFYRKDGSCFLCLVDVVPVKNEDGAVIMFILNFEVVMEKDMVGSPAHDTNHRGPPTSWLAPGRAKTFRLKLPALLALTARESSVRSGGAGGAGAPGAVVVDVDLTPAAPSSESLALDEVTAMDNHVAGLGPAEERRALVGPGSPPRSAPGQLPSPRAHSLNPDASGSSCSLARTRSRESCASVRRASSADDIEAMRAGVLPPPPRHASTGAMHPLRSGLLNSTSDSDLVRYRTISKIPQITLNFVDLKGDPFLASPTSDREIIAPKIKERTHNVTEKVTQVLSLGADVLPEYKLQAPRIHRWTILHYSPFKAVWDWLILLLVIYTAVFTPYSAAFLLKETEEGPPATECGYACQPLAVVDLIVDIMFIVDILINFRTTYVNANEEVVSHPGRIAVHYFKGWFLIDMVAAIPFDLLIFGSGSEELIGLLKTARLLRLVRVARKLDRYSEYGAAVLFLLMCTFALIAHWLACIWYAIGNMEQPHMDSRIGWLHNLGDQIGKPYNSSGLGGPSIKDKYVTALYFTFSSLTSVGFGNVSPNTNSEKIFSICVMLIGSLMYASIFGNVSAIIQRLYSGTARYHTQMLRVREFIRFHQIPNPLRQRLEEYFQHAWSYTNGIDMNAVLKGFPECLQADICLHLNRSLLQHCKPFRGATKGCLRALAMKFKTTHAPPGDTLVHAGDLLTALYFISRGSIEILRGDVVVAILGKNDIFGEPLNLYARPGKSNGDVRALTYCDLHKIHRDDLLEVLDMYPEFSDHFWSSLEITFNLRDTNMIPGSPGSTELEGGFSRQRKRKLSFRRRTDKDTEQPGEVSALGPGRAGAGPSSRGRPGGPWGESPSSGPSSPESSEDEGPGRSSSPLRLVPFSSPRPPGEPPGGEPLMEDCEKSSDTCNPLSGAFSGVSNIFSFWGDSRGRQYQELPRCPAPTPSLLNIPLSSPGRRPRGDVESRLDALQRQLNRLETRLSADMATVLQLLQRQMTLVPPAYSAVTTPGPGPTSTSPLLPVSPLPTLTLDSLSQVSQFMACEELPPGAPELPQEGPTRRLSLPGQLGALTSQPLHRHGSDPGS

| Compound | hERG current change (%, negative = inhibition) at 10uM [%] |
| --- | --- |
| CC(=O)c1ccc(NC(=O)C(C)NCc2ccccc2Cl)cc1 (stereo not shown) | -0.834 |
| Cc1nn(-c2ccccc2)c(C)c1/C=C/C(=O)OCC(=O)Nc1ncc(C(F)(F)F)cc1Cl | -12.9 |
| O=C(NC(Cc1ccc2c(c1)OCO2)C(=O)N1CCCC1C(=O)O)c1ccccc1 (stereo not shown) | 3.57 |
| COc1cc(/C=N/NC(N)=S)ccc1OC(=O)c1ccc(C)cc1 | -2.13 |
| CCN(C(=O)CN1C(=O)NC2(CCc3ccccc32)C1=O)C1CCS(=O)(=O)C1 (stereo not shown) | 10.6 |
| COc1ccc(OCCCC(=O)NCC(C)C)cc1 | -0.98 |
| NNC(=O)c1ccc(CSc2cccc3cccnc23)cc1 | 11.1 |
| Cc1cccc(N2CC(C(=O)Nc3nnc(SCC(=O)Nc4cc(C)on4)s3)CC2=O)c1 (stereo not shown) | 23 |
| COc1ccc(N2CCN(c3ncccc3C#N)CC2)cc1 | 13.5 |
| Cc1ccccc1-c1nnc(SC(C)C(=O)NC2CCCC2)o1 (stereo not shown) | -49.4 |
| CC(Oc1ccc(NC(=O)c2ccco2)cc1)C(=O)N1c2ccccc2CC1C (stereo not shown) | -9.6 |
| COc1ccc(C(=O)NCCCNC(=O)c2cnccn2)cc1Br | -0.353 |
| CCc1ccccc1NC(=O)CCS(=O)(=O)c1ccc(C)cc1 | 8.96 |
| COc1ccc(C(=S)N2CCCCCC2)cc1 | 2.63 |
| CC(=O)OCC1CCCC2=C(C)C(=O)CCC21COC(C)=O (stereo not shown) | -31.9 |
| O=C(NNC(=O)c1ccccc1C(=O)O)c1cc2ccccc2o1 | 7.87 |
| CCOC(=O)N1CCC(NC(=O)C2CCN(S(=O)(=O)N3CCCC3)CC2)CC1 | 10.9 |
| N#Cc1ccc(OCc2noc(-c3ccsc3)n2)cc1 | 8.51 |
| O=C(NC1CCN(c2ncccn2)CC1)c1ccccc1Cl | 20.4 |
| COc1cccc(-c2cc(C(=O)O)[nH]n2)c1 | 17.5 |
| O=C(O)C1CC(O)CN1C(=O)c1ccco1 (stereo not shown) | 18.8 |
| O=C(Nc1nnc(C2=COCCO2)o1)C1CCCCC1 | -0.233 |

| Compound | hERG current change (%, negative = inhibition) at 10uM [%] |
| --- | --- |
| Cc1ccc(S(=O)(=O)NCc2ccc(C(=O)N3CCN(Cc4ccccc4)CC3)cc2)cc1 | -14.4 |
| O=C(CN1CCN(C(c2ccccc2)c2ccccc2)CC1)Nc1ccc(N2CCOCC2)cc1 | 7.76 |
| CCCCCCn1c(CN2CCN(CCO)CC2)nc2c1c(=O)n(C)c(=O)n2C | -38.3 |
| Cc1ccnc(NC(=O)CCc2c(C)nc3ncnn3c2C)c1 | -11.6 |
| COc1ccc(N/C=C/C(=O)c2sc(-c3ccccc3)nc2C)cc1 | 14.4 |
| CCCNC(=O)Cc1cc(=O)[nH]c(=O)[nH]1 | 16 |
| C=CCN1C(=O)C(CC(=O)Nc2ccc(OCCC)cc2)N(CCCN2CCN(Cc3ccccc3)CC2)C1=S (stereo not shown) | -38.7 |
| COc1ccc(-c2nnc(SCC(=O)Nc3ncc(C)s3)n2-c2ccccc2)cc1OC | -12.8 |
| Cc1cccc(NC(=O)/C(=C\c2cccs2)NC(=O)c2ccccc2)c1 | -51.7 |
| Cc1ccccc1-n1c(=O)/c(=C\c2ccco2)s/c1=C(/C#N)C(=O)Nc1ccccc1 | 1.12 |
| CC(C)(C)C(=O)N1CCC(O)(CS(=O)(=O)Cc2ccccc2)CC1 | 19.9 |
| COC(=O)C1CCN(C(c2ccc(OC)c(OC)c2)c2sc3nc(C)nn3c2O)CC1 (stereo not shown) | -8.73 |
| O=C(O)Cc1ccc2oc(-c3cccnc3)nc2c1 | 19.3 |
| COCCN(Cc1cc2cc(C)c(C)cc2nc1Cl)C(=O)N1CCOCC1 | 5.05 |
| CC(=O)C1=C(O)C(=O)N(CCC(=O)O)C1c1ccc(Cl)cc1Cl (stereo not shown) | 17.9 |
| CC1CCC(NC(=O)c2ccc(NC(=O)CC3SC(N4CCCC4)=NC3=O)cc2)CC1 (stereo not shown) | 13.9 |
| CCOC(=O)C1CCCN(C(=O)c2ccc(C)cc2O)C1 (stereo not shown) | -0.613 |
| CC(Oc1ccc(C(C)(C)C)cc1)c1ccnc2nc(/N=C/N(C)C)nn12 (stereo not shown) | -26.1 |
| O=C(NC(=O)N1CCN(c2ccccc2)CC1)c1ccc(Cl)cc1 | -6.41 |
| COc1cc(C2/C(=C(\O)c3ccc4c(c3)OCCO4)C(=O)C(=O)N2Cc2ccco2)ccc1O (stereo not shown) | 17.6 |
| Cc1nc2sccn2c(=O)c1S(=O)(=O)NCCc1ccccc1 | -21.5 |
| O=C(CSc1nnc(-c2ccco2)n1-c1ccccc1)N1CCN(C(=O)c2ccco2)CC1 | -30.6 |

| Compound | hERG current change (%, negative = inhibition) at 10uM [%] |
| --- | --- |
| CCN(CC)S(=O)(=O)c1ccc(N2CCOCC2)c(NC(=O)COc2ccc(OC)cc2)c1 | -27.6 |
| Cc1cc(C(=O)Nn2cnnc2)ccc1[N+](=O)[O-] | 9.98 |
| COc1cc(C=C2C(=O)NC(=O)NC2=O)ccc1OS(=O)(=O)c1ccccc1[N+](=O)[O-] | 13.3 |
| NS(=O)(=O)c1ccc(CNC(=O)C23CC4CC(CC(C4)C2)C3)cc1 | 8.69 |
| O=C(O)c1ccccc1SCc1ccc2c(c1)OCO2 | 0.469 |
| CN1C(=O)c2ccc(C(=O)Nc3cccnc3)cc2C1=O | 13.3 |
| Cc1ccc(NC(=S)N2CCC(c3ccccc3)C2)c(Cl)c1 (stereo not shown) | -2.77 |
| Cc1cc(C)nc(Nc2nc(C)c3cc4c(cc3n2)OCO4)n1 | -3.78 |
| Cc1ccnc(NS(=O)(=O)c2ccc(NC(=O)c3c(-c4ccccc4Cl)noc3C)cc2)n1 | 14.4 |
| O=c1ncn(-c2ccc(F)cc2)c2ncccc12 | -7.49 |
| NC(N)=Nc1nc(-c2ccccc2)c2cc(F)ccc2n1 | -66.2 |
| Cc1cc2nc(-c3ccc(SCC(=O)NC(C)C)nc3)[nH]c2cc1C | 5.39 |
| Cc1oncc1-c1csc(-c2ccccc2Cl)n1 | 6.99 |
| CCOC(=O)c1cc(S(=O)(=O)N2CC(C)CC(C)C2)cn1C (stereo not shown) | 9.35 |
| O=C(NNC(=O)c1ccco1)c1cccc([N+](=O)[O-])c1 | 18.1 |
| COC(=O)c1cc2sccc2n1Cc1nc(-c2cccc(Cl)c2)oc1C | 18.9 |
| O=C(CCl)N(C/C=C/c1ccccc1)c1ccc2c(c1)OCCO2 | 7.03 |
| Cc1ccc2oc(Nc3nc(C)c(C)c(C)n3)nc2c1 | 10.2 |
| Cc1ccc(C)c(N2CCN(S(=O)(=O)CC34CCC(CC3=O)C4(C)C)CC2)c1 (stereo not shown) | 8.75 |
| C/C(=N\NC(=O)c1cc(C)nc2ccccc12)c1cccc(Cl)c1 | 25.1 |
| COc1ccc(N2CCN(C(=O)CCNC(=O)Cn3ccc4ccccc4c3=O)CC2)cc1 | -8.61 |
| CC(=O)Nc1ccc(C(=O)OCc2ccccc2Cl)cc1 | 2.42 |

| Compound | hERG current change (%, negative = inhibition) at 10uM [%] |
| --- | --- |
| N#Cc1ccccc1Sc1ccccc1C(=O)NCC(c1ccco1)N1CCCCC1 (stereo not shown) | -19 |
| Cc1nnnn1CC(=O)Nc1ccccc1[N+](=O)[O-] | -0.113 |
| CSc1ccc(CN2CCN(C(=O)c3ccncc3)CC2)cc1 | -21.4 |
| Oc1ccc(Nc2nc(-c3ccccc3F)nc3ccccc23)cc1 | -1.32 |
| COc1ccc(N(CC(=O)Nc2cc(C)on2)S(=O)(=O)c2ccc(Cl)cc2)cc1 | 9.89 |
| COC(=O)CCC(=O)Nc1sc(Cc2ccccc2)c(C)c1C(N)=O | 10.5 |
| CCOC(=O)N1CCC(=NNc2ccc(S(N)(=O)=O)cc2[N+](=O)[O-])CC1 | -11.8 |
| CCCCn1c(N)c(Sc2ccccc2)c(=O)[nH]c1=O | -6.42 |
| O=C(OC(C(=O)Nc1ccc(Cl)cc1C(F)(F)F)c1ccccc1)c1c(Cl)cccc1Cl (stereo not shown) | 4.93 |
| COc1cccc(CN(C)C(=O)CNC(=O)c2ccc(-c3ccccc3)cc2)c1OC | 11.8 |
| Cc1noc(C)c1CN1C(=O)NC(Cc2ccccc2)(Cc2ccccc2)C1=O | 5.69 |
| COc1ccc(N(C(=O)CNC(=O)c2cccs2)C(C(=O)NC2CCCC2)c2cccnc2)cc1 (stereo not shown) | -13 |
| O=C(Cc1ccc(Cl)cc1)Nc1ccc(CN2CCCCC2)cc1 | -64.9 |
| O=C(O)Cn1c(-c2ccccn2)nc2ccccc21 | 3.16 |
| CC(C)Nc1nc(NC(C)C)nc(C(N)=O)n1 | 0.0144 |
| COc1ccc(CNC(=O)N2CCN(c3ccc(F)cc3)CC2)cc1Cl | -26.1 |
| OC(Cn1cncn1)c1ccc(Cl)cc1 (stereo not shown) | -1.11 |
| CC1CCc2cc(F)ccc2N1C(=O)c1cc2nc(-c3ccco3)cc(C(F)(F)F)n2n1 (stereo not shown) | 13.4 |
| C=C(C)CN(CC)C(=O)CCc1nnc(CCCc2ccccc2)o1 | 7.19 |
| CCN(CC)c1ccc(/C=N/NC(=S)NCc2ccccc2)cc1 | 9.47 |
| CCOc1ccc(S(=O)(=O)Nc2ccccc2C(=O)N/N=C/c2c(OC)ccc3ccccc23)cc1 | -4.19 |
| COC(=O)c1ccc(C(C(=O)NC2CCCCC2)N(Cc2ccccc2)C(=O)Cc2cccs2)cc1 (stereo not shown) | -6.56 |
